From the supplement of paper PMC5919970
Structures can show the parent of a compound that is named as a salt. The full ranking holds about 2,000 compounds; the median of “fractional viability relative to vehicle” is about 0.91, and the lowest 2% start at about 0.045. This is one part of the list.

Tested on: TYKNU
Assay: fractional viability relative to vehicle; TYKNU is a high-grade serous ovarian cancer line; higher = less growth inhibition
Details: 72 h
Outline: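 TYKNU control cells or lentiCRISPRv2 knockout derivatives were seeded at 500 cells per well into drug-stamped 384-well plates holding a ~2100-compound library at 2 or 10 μM, in duplicate. Cells were grown at 37 °C in 5% CO2 in RPMI 1640 with 10% FBS, and drug treatment lasted 72 h. Viability was read by Cell Titer Glo luminescence. Duplicate treatment wells were averaged and normalised to duplicate control wells from the same plate position.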

[1] = 2uM, genotype: DNM1L knockout (sgDNM1L #1)
[2] = 2uM, genotype: sgCTRLA1 (non-targeting control)
[3] = 10uM, genotype: DNM1L knockout (sgDNM1L #1)
[4] = 10uM, genotype: sgCTRLA1 (non-targeting control)

Structure (SMILES) | fractional viability [1] | fractional viability [2] | fractional viability [3] | fractional viability [4]
CN1[C@@H]2CC[C@H]1C[C@@H](OC(=O)C(CO)c1ccccc1)C2 (stereo partly specified) [Atropine sulfate monohydrate] | 1.01 | 0.93 | 0.897 | 1.01
CCOc1ccccc1-n1c(C(C)N2CCN(C(=O)COc3ccc(Cl)cc3)CC2)nc2ccccc2c1=O (stereo unspecified) [Erastin] | 0.123 | 0.0716 | 0.0411 | 0.0416
CNCC(O)c1ccc(O)cc1 (stereo unspecified) [Synephrine HCl] | 0.901 | 1.07 | 0.806 | 1
CNCC(O)c1ccc(O)cc1 (stereo unspecified) [Synephrine] | 0.813 | 0.984 | 0.676 | 0.905
N#C[C@H](O[C@@H]1O[C@H](C(=O)O)[C@@H](O)[C@H](O)[C@H]1O)c1ccccc1 [Laetrile] | 0.984 | 1.23 | 0.709 | 1.16
C[C@]12CCC(=O)C(O)=C1CC[C@@H]1[C@@H]2CC[C@]2(C)C(=O)CC[C@@H]12 [Formestane] | 0.962 | 1.12 | 0.81 | 1.15
COc1ccc(C(CN(C)C)C2(O)CCCCC2)cc1 (stereo unspecified) [Venlafaxine] | 0.97 | 1.13 | 0.85 | 1.16
Cc1sc2c(c1C)C(c1ccc(Cl)cc1)=N[C@@H](CC(=O)Nc1ccc(O)cc1)c1nnc(C)n1-2 | 0.385 | 0.445 | 0.375 | 0.31
CCc1c(C(=O)C(N)=O)c2c(OCC(=O)O)cccc2n1Cc1ccccc1 | 1.09 | 1.02 | 0.94 | 0.973
Cc1cc2c(C(C)C)c(O)c(O)c(C=O)c2c(O)c1-c1c(C)cc2c(C(C)C)c(O)c(O)c(C=O)c2c1O [Gossypol] | 0.9 | 1.04 | 0.253 | 0.247
CC(C)NCC(O)c1ccccc1Cl (stereo unspecified) [Clorprenaline HCl] | 0.688 | 0.822 | 0.635 | 0.784
C[C@@H]1[C@H](O)[C@@H](C)/C=C/C=C/CC/C=C/C=C/C=C/C=C/[C@H](O[C@H]2O[C@@H](C)[C@H](O)[C@@H](N)[C@H]2O)C[C@@H]2O[C@](O)(C[C@@H](O)[C@H](O)CC[C@@H](O)C[C@@H](O)C[C@@H](O)CC(=O)O[C@H]1C)C[C@H](O)[C@H]2C(=O)O [Nystatin (Fungicidin)] | 0.929 | 1.11 | 0.854 | 1.03
CN(C)C(=O)Oc1ccc[n+](C)c1 [Pyridostigmine Bromide] | 1 | 1.11 | 1.06 | 1.08
CN1CCN(c2nc3ccccc3nc2Cl)CC1 | 0.991 | 1.07 | 0.842 | 0.931
CCN(CC)C(=O)c1ccc(C2=CC3(CCNCC3)Oc3cccc(O)c32)cc1 | 1.05 | 1.03 | 0.914 | 0.931
O=c1[nH]c2ccc(Cl)cc2c(N[C@@H]2CN3CCC2CC3)c1-c1nc2ccccc2[nH]1 | 0.154 | 0.195 | 0.0777 | 0.0446
CCc1cc2c(s1)-n1c(C)nnc1CN=C2c1ccccc1Cl [Etizolam] | 0.778 | 1 | 0.707 | 0.96
Cc1sc2c(c1C)C(c1ccc(Cl)cc1)=N[C@@H](CC(=O)OC(C)(C)C)c1nnc(C)n1-2 | 0.37 | 0.516 | 0.278 | 0.394
Cn1c(COP(=O)(NCCBr)NCCBr)cnc1[N+](=O)[O-] | 1.47 | 1.27 | 0.89 | 1.27
CCC1(C)CC(=O)NC(=O)C1 [Bemegride] | 0.954 | 1.13 | 0.798 | 0.959

Structure (SMILES) | fractional viability [1] | fractional viability [2] | fractional viability [3] | fractional viability [4]
CCN(Cc1ccc(Cl)nc1)/C(=C/[N+](=O)[O-])NC [Nitenpyram] | 0.733 | 1.08 | 0.638 | 0.862
Cc1ccccc1-n1c(Cn2ncc3c(N)ncnc32)nc2cccc(C)c2c1=O | 0.87 | 1.14 | 0.731 | 1.15
C/C(O)=C(\C#N)C(=O)Nc1cc(Br)ccc1Br | 0.782 | 0.916 | 0.721 | 0.699
OC(c1ccccc1)(c1ccccc1)C1CCNCC1 [Azacyclonol] | 1.08 | 1.1 | 0.675 | 1.09
COc1cc(OC)c(OC)cc1C=O [Asaraldehyde] | 1.04 | 1.26 | 0.869 | 1.22
C=C1C[C@@H]2[C@H](CC[C@]3(C)C(=O)CC[C@@H]23)[C@@]2(C)C=CC(=O)C=C12 [Exemestane] | 1.03 | 1.05 | 0.729 | 0.967
C[C@H]1CNCCc2ccc(Cl)cc21 [Lorcaserin HCl] | 1.12 | 1.15 | 0.714 | 1.04
CCCCCCCCCCCCCCCC[n+]1ccccc1 [Cetylpyridinium Chloride] | 0.216 | 0.196 | 0.0152 | 0.0105
CCCN1CCO[C@@H]2c3cc(O)ccc3OC[C@H]21 | 1.06 | 1.06 | 1.07 | 1.1
Cc1ccc(-n2nccn2)c(C(=O)N2CCN(c3nc4cc(Cl)ccc4o3)CC[C@H]2C)c1 [Suvorexant (MK-4305)] | 0.969 | 1.14 | 0.861 | 1.04
CN1C(=O)CCS(=O)(=O)C1c1ccc(Cl)cc1 (stereo unspecified) [Chlormezanone] | 1.21 | 0.939 | 0.952 | 0.831
COc1cc(C)[nH]c(=O)c1CNC(=O)c1c(C)n([C@H](C)C2CCOCC2)c2ccccc12 | 0.85 | 0.972 | 0.755 | 0.698
O=P1(N(CCCl)CCCl)NCCCO1 (stereo unspecified) [Cyclophosphamide Monohydrate] | 1.02 | 1.17 | 0.845 | 0.956
c1ccc2c(c1)sc1ccccc12 [Dibenzothiophene] | 0.939 | 1.1 | 0.765 | 1.03
C[C@]12CC[C@H](O)CC1=CC[C@@H]1[C@@H]2CC[C@]2(C)C(=O)CC[C@@H]12 [Dehydroepiandrosterone (DHEA)] | 0.916 | 1.14 | 0.747 | 0.993
COc1ccc(CC2NCCc3cc(OC)c(OC)cc32)cc1OC (stereo unspecified) [Tetrahydropapaverine HCl] | 0.891 | 1.06 | 0.955 | 1.01
c1ccc([C@@H]2C[C@H]2NC2CCNCC2)cc1 | 0.728 | 0.964 | 0.712 | 0.824
CC[C@H](C)[C@@H]([C@@H](CC(=O)N1CCC[C@H]1[C@H](OC)[C@@H](C)C(=O)N[C@H](C)[C@@H](O)c1ccccc1)OC)N(C)C(=O)[C@@H](NC(=O)[C@@H](NC)C(C)C)C(C)C [Monomethyl auristatin E (MMAE)] | 0.0977 | 0.0889 | 0.0769 | 0.0612
O=[N+]([O-])c1ncc[nH]1 [Azomycin] | 0.753 | 1.09 | 0.757 | 0.975
CC(C)OC(=O)[C@H](C)N[P@](=O)(CO[C@H](C)Cn1cnc2c(N)ncnc21)Oc1ccccc1 [Tenofovir Alafenamide (GS-7340)] | 0.811 | 0.941 | 0.828 | 0.76

Structure (SMILES) | fractional viability [1] | fractional viability [2] | fractional viability [3] | fractional viability [4]
O=c1cccc2n1C[C@@H]1CNC[C@H]2C1 [Cytisine] | 1.07 | 1.04 | 1.02 | 0.97
CCOC(=O)c1cncn1[C@H](C)c1ccccc1 [Etomidate] | 1.06 | 1.16 | 0.909 | 1.31
CC(O)(CS(=O)(=O)c1ccc(F)cc1)C(=O)Nc1ccc(C#N)c(C(F)(F)F)c1 (stereo unspecified) [Bicalutamide] | 1.02 | 1.17 | 0.893 | 1.08
CCN1CCN(C(=O)Cc2ccc(Nc3ncc(F)c(Nc4ccc(C(=O)Nc5ccccc5Cl)cc4)n3)cc2)CC1 [Aurora A Inhibitor I] | 0.904 | 0.926 | 0.0479 | 0.0775
CC(C)(C)c1cc(C=C(C#N)C#N)cc(C(C)(C)C)c1O [Tyrphostin 9] | 0.406 | 0.379 | 0.129 | 0.128
O=C(O)c1nn(Cc2ccc(Cl)cc2Cl)c2ccccc12 [Lonidamine] | 0.961 | 1.06 | 0.87 | 1.16
Cc1cc(C(C#N)c2ccc(Cl)cc2)c(Cl)cc1NC(=O)c1cc(I)cc(I)c1O (stereo unspecified) [Closantel Sodium] | 0.98 | 1.19 | 0.879 | 0.97
Cc1cc(C(C#N)c2ccc(Cl)cc2)c(Cl)cc1NC(=O)c1cc(I)cc(I)c1O (stereo unspecified) [Closantel] | 1.13 | 1.17 | 0.948 | 1.1
O=C1CC[C@@]2(O)[C@H]3Cc4ccc(O)c5c4[C@@]2(CCN3CC2CC2)[C@H]1O5 [Naltrexone HCl] | 1.02 | 1.04 | 0.79 | 1.02
Cn1c(CCCC(=O)O)nc2cc(N(CCCl)CCCl)ccc21 [Bendamustine HCl] | 1.04 | 1.09 | 0.902 | 1.02
CC(NC(C)(C)C)C(=O)c1cccc(Cl)c1 (stereo unspecified) [Amfebutamone HCl] | 1.06 | 1.06 | 0.953 | 0.919
CC(C)(C)c1cc(C=C(C#N)C#N)cc(Br)c1O | 1.21 | 1.08 | 1.09 | 0.939
CC(C)[C@]12O[C@H]1[C@@H]1O[C@]13[C@]1(O[C@H]1C[C@H]1C4=C(CC[C@@]13C)C(=O)OC4)[C@@H]2O [Triptolide (PG490)] | 0.337 | 0.253 | 0.286 | 0.237
CN(C)CCc1ccc(O)cc1 [Hordenine] | 0.84 | 1.21 | 0.83 | 1.16
COC1=C[C@@H]2[C@@H]3Cc4ccc(OC)c(O)c4[C@]2(CCN3C)CC1=O [Sinomenine] | 0.947 | 1.26 | 0.824 | 1.2
COc1ccc(N(C(=O)Oc2c(C)cccc2C)c2ccnc(Nc3ccc(N4CCN(C)CC4)cc3)n2)c(OC)c1 | 0.822 | 0.958 | 0.662 | 0.666
C/C(=C\c1csc(C)n1)[C@@H]1C[C@@H]2O[C@@H]2CCC[C@H](C)[C@H](O)[C@@H](C)C(=O)C(C)(C)[C@@H](O)CC(=O)O1 [Epothilone A] | 0.211 | 0.264 | 0.235 | 0.323
CN1[C@@H]2C[C@@H](OC(=O)[C@H](CO)c3ccccc3)C[C@H]1[C@@H]1O[C@@H]12 [Scopolamine HBr] | 0.974 | 1.22 | 1.02 | 1.16
[O-][n+]1ccccc1[S-].[O-][n+]1ccccc1[S-].[Zn+2] [Zinc Pyrithione] | 0.0424 | 0.0207 | 0.0251 | 0.0128
